Drawing on article PMC12136788, this text covers binding signal for 14 molecules.

T1: UNK ZnF1-3 (human, UniProt Q9C0B0 31-174)
T1 sequence: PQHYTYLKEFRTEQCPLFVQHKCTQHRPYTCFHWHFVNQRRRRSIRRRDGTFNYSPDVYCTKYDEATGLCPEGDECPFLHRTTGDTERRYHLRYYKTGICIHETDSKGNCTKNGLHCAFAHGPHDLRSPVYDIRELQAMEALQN

B1: 49527312_49527432_209_3pUTR_ENSMUSG00000044018_ENSMUST00000057829|mouse|control|control (ssRNA)
RNA: GGGAGUUCUACAGUCCGACGAUCCUUUAAUAUGAGAUUCCAAGCGACUCUGGAGAUCACUGGGCGGUGUGUAUGCUCGGCUUCGUAAGGGUGGACACACCAAAACAGGUUCUUUUUUCACUUCUUCCACUGUCUCUGCCACAACAACAGAGGAUUGAGCAUCA
B2: chr8:24301720:24301721:-_ENSMUSG00000031545_ENSMUST00000167004|mus_mus|motif|central (ssRNA)
RNA: GGGAGUUCUACAGUCCGACGAUCUGCUUCCAAGGUUUUACUUUCCUCCUGCCCCAAAGCAUUCAGCGGGUAAAUUUGUCCGGAAGAUCUGUAUUGUCAGAAGUACCAAGAAGAGUUCGCCUUGGUGCCAGAAGAAUCCUGAAACAACAGAGGAUUGAGCAUCA
B3: 57929543_57936757_61_3pUTR_ENSG00000175203_ENST00000537439|human|control|control (ssRNA)
RNA: GGGAGUUCUACAGUCCGACGAUCUCCCCACUCUCUUGUCCUUGAACUUGUCAUAGGCAGCAUUAGGAUUGACAAUGAUGUGUUCCACACUUGUGCUUGUCAGCUCCUCAAGAGUCCUUGAAUCCUCUGUUCCCUGUGCAUACACAACAGAGGAUUGAGCAUCA
B4: chr5:110835399:110835400:-_ENSG00000164211_ENST00000296632|hu_mus|FALSE|FALSE (ssRNA)
RNA: GGGAGUUCUACAGUCCGACGAUCAACCAAACAAGGUGCAAAUAAGACUUUUAAGAAAUUGUAAAUGCCCUAUUUACAUAGCCAUGUAUUUUUAAUAGAAAAUGAGAUUGUACUAUGGCCCCAACAACACCUCCAGUGUUUCCACAACAGAGGAUUGAGCAUCA
B5: chr16:55990476:55990477:+_ENSMUSG00000022601_ENSMUST00000050248|mus_hu|motif|central (ssRNA)
RNA: GGGAGUUCUACAGUCCGACGAUCUAGCUUAUGUACACUUUCACAAAUCUCUAAGACUUCUGACAUGAAAAGAUGACGAGCGGAGAUGGCUACAUCAGCCAUGCUACAGAAAUCAAAACUUAGUACAGAAGUAUAGGCAAAUUCCAACAGAGGAUUGAGCAUCA
B6: chr1:118502009:118502010:+_ENSG00000065183_ENST00000349139|hu_mus|FALSE|FALSE (ssRNA)
RNA: GGGAGUUCUACAGUCCGACGAUCUGUUAAAAUCAUCCUUUUCCUGUUUUUUCGUUUUUUCUUCUUCUCUUCCAAGUGACUAGUAGCUUCUGCAAAAAACAUCACUUCACUCUUUGCUUCACACUCUCUCUUGAGAUAAUCGAGCAACAGAGGAUUGAGCAUCA
B7: chr5:77764768:77764769:+_ENSMUSG00000029250_ENSMUST00000031167|mus_mus|FALSE|FALSE (ssRNA)
RNA: GGGAGUUCUACAGUCCGACGAUCGACUCCAAGAAUCAUUGAUGGGUGAAUCUCACAGUGGGUGUAGGUAGAACAAUAAGCUACUUCCUUCUCCUGCAAAUCAUCUGGAGUCAUUGCAAGCAUCACGGUCUCCUCUUCCAGGGUCAACAGAGGAUUGAGCAUCA
B8: chr9:100410314:100410315:+_ENSG00000136937_ENST00000375147|hu_mus|FALSE|FALSE (ssRNA)
RNA: GGGAGUUCUACAGUCCGACGAUCGUGCCUCUCCUGCCACCGGUCUUUUUUCAAUUUCUGAAUCUGGGCCCACAGGCAAUCUAAAUACUCUUCCUGUGGAUGUGGUUUGUCGGCAGUCCAGACUUGUAACAUGGGCACGUGAGUCAACAGAGGAUUGAGCAUCA
B9: 45712936_45714488_62_3pUTR_ENSMUSG00000042790_ENSMUST00000161187|mouse|control|control (ssRNA)
RNA: GGGAGUUCUACAGUCCGACGAUCGAAGAUUCCGAAGGACUCGGGGUACCGGCCCCAAGGCCAGCUACCUCAGAGGCCGCCAUCUGCACUCUGAGCGGGCGGAGCGGGGGAGGGGGCGGCCAAGCCUGGGGGAGGGGUCGAGCGCAACAGAGGAUUGAGCAUCA
B10: chr17:57759754:57759755:+_ENSG00000141367_ENST00000269122|hu_hu|FALSE|FALSE (ssRNA)
RNA: GGGAGUUCUACAGUCCGACGAUCAUCAUAACAACGGUCACCAACUUGUUGGAUAUGAGCAUUAUUUGGUCCAUUGAUAAAUUCUUCUAACUCUGCAAGGCGGUUUGUUUUAGCCAGUGCGAAUAUCAGUUCUGUCUCCACAUACAACAGAGGAUUGAGCAUCA
B11: chr13:120183613:120183614:-_ENSMUSG00000025453_ENSMUST00000099149|mus_mus|motif|central (ssRNA)
RNA: GGGAGUUCUACAGUCCGACGAUCGUAGAUGAAGCUAAUUAGAGUUCCUGAUGGCUUUAAAAAGUCAGCUUCGUGAGCGCCGGACGUCGGGUUCACCAUGGGGGCCCUCACUUUGACCACCAGAUCAGAAGCCAGAACUUCCUUCAACAGAGGAUUGAGCAUCA
B12: chr19:10059387:10059388:+_ENSMUSG00000024661_ENSMUST00000025563|mus_hu|FALSE|FALSE (ssRNA)
RNA: GGGAGUUCUACAGUCCGACGAUCGCCCGAGGCUUAGCUUUCAUUAUCACUGUCUCCCAGGGUGUGCUUGUCAAAGAGAUAUUCCGCCAAGCCAGAUUCGGGCGCUCCCAUCUUGCGCAAGUUGGUCACGUGGUCACCCAAUUCCAACAGAGGAUUGAGCAUCA
B13: chr2:224824363:224824364:+_ENSG00000135900_ENST00000258383|hu_mus|motif|central (ssRNA)
RNA: GGGAGUUCUACAGUCCGACGAUCAGCUUCUUUCUCUAUGCCAAGGCUCUGACGUUUCGCCUCUUCGCUUUUGAUGUAGCAGCGGUUGAUAAAUGCAGUUUUGAGAAGGUCCAACGAAAAGGUUUCUUGUAAGCGAGAUCCAAACAACAGAGGAUUGAGCAUCA
B14: chr17:74801258:74801259:+_ENSMUSG00000024069_ENSMUST00000024870|mus_hu|FALSE|FALSE (ssRNA)
RNA: GGGAGUUCUACAGUCCGACGAUCGUUUAUUACACCAAAGAGCAGUAUCUUCCAGGACCUUCGGUCAGCUGCUACAAGUCUAAAUUCCCGUAACAACUUGCCAAAAAAGGAUCUUUGUGGUUUUCGAAAGAGAUGAAUUGUCCCCAACAGAGGAUUGAGCAUCA

This is one part of the list.

This assay deals with T1, UNK ZnF1-3. The assay can be described thus: nsRBNS (natural sequence RNA bind-n-seq); RBNS binding buffer (assumed for nsRBNS): 25 mM Tris pH 7.5, 150 mM KCl, 3 mM MgCl2, 0.01% Triton X-100, 500 ug/ml BSA, 20 U/ml SUPERase-In, 4 C; UNK is unkempt and MSI1 is Musashi-1; names of the RNAs are library labels; protein concentration not given here; high values mean tight binding.
B1: the binding signal is 0.889 enrichment R.
With B2, the binding signal was 0.805 enrichment R.
In turn, B3 came in with a binding signal of 0.695 enrichment R.
As for B4, the binding signal was 1.36 enrichment R.
B5 had a binding signal of 0.939 enrichment R.
The molecule B6 showed a binding signal of 0.687 enrichment R.
B7 registered a binding signal of 0.96 enrichment R.
With B8, the binding signal is 0.723 enrichment R.
In the case of B9, the binding signal was 1.17 enrichment R.
B10 gave a binding signal of 1.6 enrichment R.
Take B11: the binding signal was found to be 0.932 enrichment R.
With B12 the figure was 0.782 enrichment R; with B13, 1.02 enrichment R.
Consider B14, for which the binding signal worked out at 0.709 enrichment R.
